These results are taken from PubChem BioAssay AID488969 (Vanderbilt High Throughput Screening Facility, 2010).

In all, about 110,000 compounds were measured (“z-score”: median about -0.1, highest 2% from about 2 on). The list shows a part of the results.

For the test, the target named is Metabotropic glutamate receptor 8 (Rattus norvegicus) (UniProt P70579). Description: mGluR8 Gi/Go-coupled signaling modulation – cell-based, rat, thallium flux, HTS, primary screen (AID 488969). Conditions: HEK293 rat mGluR8, GIRK (G protein-gated inwardly rectifying potassium channel) thallium flux, FluoZin2; at 10 µM; stronger effect = higher value; submaximal glutamate (EC20) added with thallium.
UniProt P70579, sequence (P70579 whole entry, looked up): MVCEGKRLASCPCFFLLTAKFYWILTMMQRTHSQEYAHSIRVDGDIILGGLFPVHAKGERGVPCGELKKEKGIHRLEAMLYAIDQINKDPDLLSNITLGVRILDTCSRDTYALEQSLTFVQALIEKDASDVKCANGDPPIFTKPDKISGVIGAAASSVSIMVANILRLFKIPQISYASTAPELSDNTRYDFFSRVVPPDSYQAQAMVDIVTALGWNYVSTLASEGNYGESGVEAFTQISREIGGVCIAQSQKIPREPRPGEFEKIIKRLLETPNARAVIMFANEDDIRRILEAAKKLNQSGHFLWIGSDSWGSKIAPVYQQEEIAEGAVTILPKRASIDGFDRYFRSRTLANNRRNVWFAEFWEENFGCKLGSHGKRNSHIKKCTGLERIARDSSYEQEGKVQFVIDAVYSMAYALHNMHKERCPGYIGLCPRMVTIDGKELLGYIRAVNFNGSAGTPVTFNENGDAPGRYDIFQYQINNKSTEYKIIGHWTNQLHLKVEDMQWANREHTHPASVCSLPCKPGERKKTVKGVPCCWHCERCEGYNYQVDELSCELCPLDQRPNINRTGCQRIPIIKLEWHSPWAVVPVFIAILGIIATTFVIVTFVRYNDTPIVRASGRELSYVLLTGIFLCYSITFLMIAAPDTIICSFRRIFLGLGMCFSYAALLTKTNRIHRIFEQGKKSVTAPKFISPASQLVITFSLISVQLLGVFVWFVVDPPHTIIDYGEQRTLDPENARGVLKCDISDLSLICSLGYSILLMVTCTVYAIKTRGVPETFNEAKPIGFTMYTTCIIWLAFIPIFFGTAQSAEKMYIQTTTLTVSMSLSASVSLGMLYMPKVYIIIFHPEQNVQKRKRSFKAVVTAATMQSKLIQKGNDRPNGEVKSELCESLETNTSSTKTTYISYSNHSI
The molecule `Cc1cc(NC(=O)C2CC(c3ccccc3Cl)=NO2)no1` (stereo not drawn) had a z-score of -0.102.

Consider `Cc1ccc(-n2c(Cc3cccn3C)nnc2SCC(=O)NCc2ccc3c(c2)OCO3)cc1`, for which the z-score came to 0.0164.

Consider `N#CC1=C(N)OC2=C(CN(Cc3ccccc3)C/C2=C\c2cccnc2)C1c1cccnc1` (stereo not drawn), for which the z-score is -0.12.

Turning to `CC(Cc1cccs1)NC(=O)Nc1ccc(Cl)cc1` (stereo not drawn), the z-score came to 1.28.

`CNc1nnc(CSc2nc(C)cc(C)n2)s1` registered a z-score of -0.0604.

Take `COc1ccc(CCNC(=O)Cn2cccc2C(=O)c2ccccc2)cc1OC`: the z-score was -0.384.

In the case of `CC(C)NC(C(=O)Nc1cc(Cl)cc(Cl)c1)c1ccccc1` (stereo not drawn), the z-score is 0.344.

As to `CC(=O)OCC(OC(C)=O)C(OC(C)=O)C(OC(C)=O)C(=O)Nc1ccc(C)cc1` (stereo not drawn), the z-score was determined as 0.0188.

Regarding `N#Cc1ccc(-c2csc(NNC(=O)c3ccc(Br)cc3)n2)cc1`, the z-score is -0.39.

In the case of `CCOCCCNC(=O)C1CCCN1C(=O)NC1CCCCC1` (stereo not drawn), the z-score was -0.594.

The molecule `CCCCc1nc(NCc2ccccc2)c(C#N)c2c1COC(C)(C)C2` gave a z-score of 0.531.

The molecule `CCOC(=O)c1ccc(N2C(=O)C3ON(c4ccccc4)C(c4ccco4)C3C2=O)cc1` (stereo not drawn) showed a z-score of -0.354.

`O=C(Nc1ccccc1C(=O)N1CCOCC1)c1noc2c1CCCC2` gave a z-score of -0.797.

`C=C(C)C1CC=C(C)/C(=N\NC(=O)CCc2ccccc2)C1` (stereo not drawn) registered a z-score of -0.339.

`COC(=O)c1cc(OC)c(OC)cc1NC(=S)Nc1cccc(C(C)=O)c1`: the z-score was 1.8.

Regarding `COc1ccc(/C=C2/SC(=O)N(CCNC(=O)C3CCCN3C(=O)c3cccs3)C2=O)cc1` (stereo not drawn), the z-score is -0.148.

Turning to `Cc1ccc(N=Nc2c(O)n(CN3CCOCC3)c3ccccc23)cc1`, the z-score was -0.152.

Take `Cc1ccc(C(=O)c2sc3nsc(C)c3c2N)cc1`: the z-score was -0.0515.

The molecule `O=C1C2CCCN2C(c2cccc(F)c2)N1c1cccc(Cl)c1` (stereo not drawn) came in with a z-score of -0.718.

Molecule `CCc1cc2c(CN3CCN(CC)CC3)cc(=O)oc2cc1O` displayed a z-score of -0.115.

Regarding `COc1ccc(C(=S)NC2CCCCC2)cc1`, the z-score was -0.201.

In turn, `Cc1nc2sc3c(c2c(=O)o1)CC(C)(C)OC3` registered a z-score of 0.0177.

Consider `O=C(NCc1cccs1)c1ccccc1[N+](=O)[O-]`, for which the z-score was -0.563.

Molecule `N/C(=N\OS(=O)(=O)c1cccc([N+](=O)[O-])c1)c1ccncc1` yielded a z-score of -0.167.

The molecule `CC(C)n1c(SCC(=O)N2c3ccccc3Sc3ccccc32)nc2c1c(=O)n(C)c(=O)n2C` yielded a z-score of -0.355.

The molecule `Cc1ccc(C(=O)Nc2ccccc2C(=O)N2CC3(C)CC2CC(C)(C)C3)cc1` (stereo not drawn) came in with a z-score of -0.155.

`O=C(CC1C(=O)NCCN1C(=O)Nc1ccccc1)Nc1ccc2c(c1)OCO2` (stereo not drawn): the z-score stood at 0.435.

`CC(C)NC(=O)c1ccccc1S(=O)(=O)c1ccccc1C#N` yielded a z-score of -0.187.

`Cc1c[nH]c2cccc(OCC(O)CNC(C)(C)C)c12` (stereo not drawn) registered a z-score of 0.45.

In the case of `O=C(Nc1ccc(F)cc1)N1CCOCC1`, the z-score came to 0.651.

`COc1ccccc1OCC(=O)OCC(=O)Nc1sccc1C(N)=O` had a z-score of -0.178.

`Cc1ccc([N+](=O)[O-])cc1NC(=O)CN(C(=O)c1ccc(Cl)cc1)C1CCCCC1` came in with a z-score of -0.595.

Regarding `Cc1ccc(S(=O)(=O)/N=C/c2ccc(N(C)C)cc2)cc1`, the z-score was -0.154.

Regarding `Cc1ccc2c(c1)c(C)cc[n+]2Cc1ccccc1`, the z-score is -0.0709.

In the case of `COc1cccc(/C=C/C(=O)OCC(=O)N2c3ccccc3NC(=O)C2(C)C)c1`, the z-score amounted to 0.273.

In turn, `Cc1ccc(CCNC(=O)CCc2nc3ccccc3[nH]2)cc1` registered a z-score of 0.788.

Molecule `O=[N+]([O-])c1c(NCc2ccccc2)cc(N2CCc3ccccc3C2)c2nonc12` registered a z-score of -0.0475.

Regarding `CCCCOC(=O)Nc1ccc(S(=O)(=O)Nc2ccc([N+](=O)[O-])cc2)cc1`, the z-score is 0.51.

The molecule `Cc1nc(SCC(=O)Nc2ccc(F)cc2)c(C#N)c(C)c1CC(=O)c1ccc(Br)cc1` displayed a z-score of -0.0107.

`O=C(CSc1nc(C2CC2)nc2ccccc12)Nc1ccc2c(c1)OCCO2` returned a z-score of -0.147.

The molecule `CCC(=O)NC(c1cccc([N+](=O)[O-])c1)c1c(OC(C)=O)ccc2ccccc12` (stereo not drawn) gave a z-score of -0.5.

As to `CNS(=O)(=O)c1cccc(C(=O)OCC(=O)C23CC4CC(CC(C4)C2)C3)c1`, the z-score was found to be 0.123.

On to `COC(=O)CNC(=O)Cc1c(F)cccc1Cl`, for which the z-score is 0.836.

In turn, `Cc1ccc(C(=O)Oc2ccc3c(c2)ncn3C)cc1` had a z-score of -0.539.

`Cc1cc2ccccc2cc(C)c1=O` returned a z-score of -0.133.

With `Cc1ccc(C)c(N(C(=O)c2nsc(Cl)c2Cl)C(C(=O)NC2CCCC2)c2ccc(O)cc2)c1` (stereo not drawn), the z-score was -0.36.

The molecule `COc1ccccc1-c1nnc(SCc2nc3ccccc3s2)n1C` registered a z-score of -0.032.

As to `Cc1ccc(C)c(N2CCN(C(=O)COc3cc(=O)n(C)c4ccccc34)CC2)c1`, the z-score is -0.277.

Molecule `O=C(COc1ccccc1-c1ccccc1)N/N=C/c1cccc2ccccc12` displayed a z-score of -0.0947.

`Cc1ccc(NC(=O)c2cc(-c3ccccc3)nn2-c2ccccc2)cc1`: the z-score is 1.28.

The molecule `CCc1nc(SCc2ccc(C(=O)OC)o2)c2c(=O)n(C)c(=O)n(C)c2n1` showed a z-score of -0.788.

In turn, `COC(C(=O)Nc1ccc(S(=O)(=O)Nc2c(C)cccc2C)cc1)c1ccccc1` (stereo not drawn) came in with a z-score of -1.68.

`Cc1ccc(C(=O)OCC(=O)Nc2cc(F)ccc2F)cc1NC(=O)c1ccco1`: the z-score was -0.571.

For `CC(C)n1nc(C(=O)OCC(=O)c2c[nH]c3ccccc23)c2ccccc2c1=O`, the z-score is -2.75.

Molecule `CCc1n[nH]c(=S)n1/N=C/c1cc(Br)c(OC)cc1OC` returned a z-score of -0.208.

In the case of `Cc1cccc(-c2cc3nc(-c4ccccc4)cc(N4CCC5(CC4)OCCO5)n3n2)c1`, the z-score amounted to 0.212.

With `N#Cc1ccc(-c2ccc(F)cc2)nc1Sc1ccc(F)cc1`, the z-score is -0.78.

As to `COc1ccc(N2C(=O)CC3(CCCC3)CC2=O)cc1`, the z-score is -0.127.

Molecule `Cc1ccc2nc(Nc3nc(C)cc(C(F)(F)F)n3)nc(C)c2c1` displayed a z-score of -0.124.

Molecule `CCC1(C)Cc2ccccc2-c2nc(NCCCO)n(-c3ccccc3)c(=O)c21` (stereo not drawn) gave a z-score of -0.129.

In the case of `COc1ccccc1N1C(=N)S/C(=C\c2ccc(-c3ccccc3C(=O)O)o2)C1=O`, the z-score was -0.362.

`COc1ccc2[nH]cc(C(=O)CN3CCC(C)CC3)c2c1` came in with a z-score of 0.0398.

With `COCCN1C(=O)c2oc3cc(C)c(C)cc3c(=O)c2C1c1cccc(O)c1` (stereo not drawn), the z-score was -0.184.

`CNc1nc2c(C)cccn2c(=O)c1C=NCc1ccccc1`: the z-score is -0.335.

For the molecule `O=C(CCN1CCN(c2ccccc2)CC1)Nc1ccc(Cl)cc1`, the z-score was found to be 1.77.

`CC(C)(C)OC(=O)NCCc1nnc(SCC(=O)c2ccc(Cl)cc2)o1` displayed a z-score of -0.0633.

Molecule `Cc1c(NS(=O)(=O)c2cccc(C(=O)NCc3ccccc3)c2)c(=O)n(-c2ccccc2)n1C` yielded a z-score of 0.778.

In the case of `Cc1ccc(N2C(=O)C3C4C=CC(CNC(=S)Nc5ccc(F)cc5)(O4)C3C2=O)cc1` (stereo not drawn), the z-score is -0.0676.
